# From ChEMBL document CHEMBL4888484, “Replenishing the malaria drug discovery pipeline: Screening and hit evaluation of the MMV Hit Generation Library 1 (HGL1) against asexual blood stage Plasmodium falciparum ,using a nano luciferase reporter read-out” (2022)
# Among all 150,000 compounds or so, about 540 (0.36%) showed an effect of 50% or more. The list shows a part of the results.
# System: Plasmodium falciparum
# Assay: Primary screen in NF54 nanoGlo assay, in single point, at 2uM, 72h; a lower Z score goes with more inhibition
# Assay type: functional, Erythrocyte
# Details: timepoint 72 hour
Compound,% Inhibition [%],Z score
CCN1CCN(c2c(CN(CC(C)C)C(=O)c3cccc(Br)c3)c(C)nn2-c2cccc(F)c2)CC1,1,-0.17
CCc1csc(CCNC(=O)c2ccon2)n1,-8,1.51
N#Cc1cnn2ccn(C[C@H]3CCCS(=O)(=O)C3)c12,-5,1.07
C[C@@H](CC(=O)N1CCCN(CC2CCC2)CC1)N1CCCCC1=O,0,-0.05
Cc1cc(CN2CCN([C@@H](C)c3ncc(C)o3)CC2)on1,-5,0.77
N#Cc1ccc(S(=O)(=O)Nc2cccc3nc[nH]c23)cc1,-17,2.26
COc1ccc(OC)c(-c2cnc(-c3ccc(CNC(=O)c4c(Cl)cc(Cl)cc4Cl)cc3)[nH]2)c1,10,-1.33
CCc1cnc(N[C@H]2CCCN(Cc3ccccc3)C2)nc1,-11,2.09
Cc1ccc(Oc2nc(N3CCCCC3)nc3c2CN(Cc2cc(C)ccc2F)CC3)cc1,-3,0.47
CC(C)[C@@H]1N(C(=O)NCCc2cccc(C(F)(F)F)n2)CC12CC=CC2,-10,2.18
CCCN(CC(=O)Nc1ccccc1C)C(=O)COC(=O)c1cncc(OCC(F)F)c1,-12,1.07
Cc1cnn(Cc2ccccc2F)c1NC(=O)[C@@H]1CN(C)CCO1,1,-0.06
Brc1ccc2nc(Nc3ccncc3)nc(-c3ccccc3)c2c1,4,-0.82
Cc1cc(C)cc([C@@H](O)CNC(=O)c2cc(F)ccc2N2CCN(C)CC2)c1,-5,0.79
CC(C)N1CCC(N2CCN(c3cc(C4CC4)ncn3)C[C@@H]2CCO)CC1,7,-1.02
Cc1cccc(-c2cc(N3CCN(C(=O)c4cc(F)ccc4Cl)CC3)ncn2)c1,-4,0.59
Cn1cc(-c2ccccc2CNC(=O)C(C)(C)CO)cn1,-7,1.35
Cc1nc(Nc2ccc(F)cn2)sc1C(=O)NCc1ccccn1,-9,1.6
CC(C)(C)n1cncc1[C@H]1CCCN(C(=O)NCCc2cn[nH]c2)C1,-8,0.98
O=C(Cc1ccccc1)N[C@@H]1CN(c2ccncn2)C[C@H]1CO,3,-0.43
COc1ccccc1CNC(=O)CN1CCCc2nc(-c3ccncc3)ncc2C1=O,1,-0.09

Compound,% Inhibition [%],Z score
CCN1CCN([C@H]2CCN(C(=O)c3cc(C)nc4c3cnn4C)C2)CC1,9,-0.86
CC(C)n1nccc1N(CC(=O)N(C)C1CCCCC1)S(=O)(=O)c1ccccc1,-18,2.86
Cn1cc(Cl)cc1C(=O)N1CC[C@@]2(CCCN(C3CCCCC3)C2=O)C1,-5,0.75
CCc1noc(C)c1CNC(=O)N1CC2(CCC2)[C@@H]1C1CCOCC1,2,-0.33
O=C1CN(C(=O)[C@H]2CCC(=O)N(C3CCCC3)C2)CCN1Cc1cccc(F)c1,-12,1.55
O=C(C1CCC(O)CC1)N1CCCCC[C@H]1C=Cc1ccccc1 (stereo partly specified),-4,0.69
CC(C)Cn1ncc(Nc2ncnc3[nH]ccc23)c1C1CC1,25,-3.19
CCn1c(CO)nnc1[C@H]1C[C@H](NC(=O)c2ccc3cc[nH]c3c2)C1,-21,3.99
CN([C@H]1CCS(=O)(=O)C1)S(=O)(=O)c1cccc2c1N=S=N2,-10,1.19
CN(C(=O)N[C@H]1CC(=O)N(c2ccccc2)C1)C1CCCCC1,22,-2.77
CCCN1CCN(S(=O)(=O)c2cccc(OC)c2)[C@H]2CS(=O)(=O)C[C@H]21,-1,0.1
CC1CCN(C(=O)CON=C(N)c2ccccc2CN2CCCCC2)CC1,-13,1.46
O=C(NCCC1=CCCCC1)c1ccc2cc(-c3ccccc3)[nH]c2c1,-5,0.88
CC1CCN(C(=O)NCC2CCC(F)(F)CC2)CC1n1ccnc1 (stereo unspecified),39,-5.63
Cc1ccc(C)c(CN2CCN(Cc3ccccn3)[C@H]3CS(=O)(=O)C[C@H]32)c1,1,-0.13
CC[C@H]1CCCCN1C(=O)NCC1CCC2(CC1)OCCO2,-16,2.02
N#Cc1ccc([C@H]2CC(=O)Nc3c2cnn3Cc2cccs2)cc1,-6,1.15
CCOC[C@@H](O)CNC(=O)C1CCN(C(=O)CC)CC1,-1,0.15
NC(=O)c1ccc(CN2CCN(S(=O)(=O)c3ccc4c(c3)CCCC4)CC2)cc1,2,-0.23
CN1C(=O)CC[C@@]12CCN(C(=O)Nc1ccccc1C(F)(F)F)C2,-4,0.53
CC(C)(C)NC(=O)Cn1cnc(C#N)n1,0,-0.02

Compound,% Inhibition [%],Z score
COc1cccc(CN2CCC[C@H]2c2nn(C)c3c2COCC3)n1,-2,0.18
CC(=O)N1CCc2c(c3ccccc3n2C)C1,7,-0.94
CN(CCc1noc(C2CN(CC3CCCCC3)C2)n1)C(=O)C1CCOCC1,3,-0.41
O=C(NCc1ccc(C(=O)N2CCOCC2)cc1)c1ccc2c(c1)OCO2,-6,1.18
Cc1cc(Cl)ccc1OCc1nc(-c2ccc3c(c2)nnn3CCC(=O)N2CCCC2)no1,-12,1.56
C[C@H](NC1Cc2ccccc2C1)c1nnc(N)s1,-14,1.81
c1ncc(-c2cnn3c2OCCC3)s1,4,-0.57
COc1ccc(Oc2c(CN(CC3CC3)C(=O)c3ccccc3)c(-c3ccccc3)nn2C)cc1,32,-0.44
O=C(Nc1ccc2c(c1)OCO2)c1nnc(C(=O)N2CCC[C@H](C(=O)NCCN3CCCC3)C2)s1,-28,2.51
CCc1ccc(NC(=O)c2nnc(CN(CC(C)(C)O)C(C)C)s2)cc1,-5,0.57
O=C(Nc1ccon1)N1CCC[C@@H]1CCC1CCCCC1,-23,3.21
COC1(OC)CCCC[C@@H]1NC(=O)OC1CCC1,-12,1.3
Cn1nccc1C(=O)N1CCC[C@H]1c1nc(-c2ccc(F)cc2F)no1,-11,1.62
CCN1CCCC(NC2CCc3ncnn3C2)c2ccccc21 (stereo unspecified),-1,0.15
CC(=O)c1c(F)cccc1N1CCN(S(C)(=O)=O)[C@@H](C)C1,-10,1.33
Cc1ccccc1CS(=O)(=O)N1CC(CO)C1,-6,0.67
CCn1cc(C)c(C(=O)O)c1CC(=O)Nc1ccc(F)cc1,-11,1.4
Cc1nc(CCCC(=O)N(C)S(=O)(=O)C(C)C)cs1,5,-0.7
CC(=O)NC(C)(COc1nonc1C)COc1nonc1C,0,0
CC1CCN(C[C@@H](O)CNC(=O)C2CCCCCC2)CC1,0,0.02
CCOc1cccc(CC(=O)N2C[C@H](Cc3ccccc3)[C@@H](O)C2)n1,1,-0.17

Compound,% Inhibition [%],Z score
CC(C)(C)c1nc(CN2C[C@@H]3[C@H](C2)[C@H]2CC[C@@H]3O2)no1,1,-0.17
CCCn1ncc(CN(CCOC)CC2CCN(Cc3ccccc3OC)CC2)c1C,-9,1.05
CN1c2cc(C(=O)NCc3ccccc3)ccc2C(=O)N2CCCCC[C@H]21,0,-0.01
COc1cc(F)cc(F)c1S(=O)(=O)NCCc1cnoc1,-20,2.01
Cc1ccc(NS(=O)(=O)c2cc(-c3cc(C(F)(F)F)on3)ccc2C)cc1C,1,-0.18
O=C(C1CC1c1ccco1)N1CCN(c2ccccn2)CC1 (stereo unspecified),-1,0.06
C[C@@]1(C(=O)NCc2ccc(F)cc2)CN(S(=O)(=O)c2ccccc2)CC(=O)N1C1CC1,4,-0.76
Cc1nonc1CC(=O)N1CCC[C@]1(C)Cc1ccc(Cl)s1,3,-0.31
C1=C([C@]23CCCN(Cc4ncc[nH]4)[C@@H]2CCOC3)CCOC1,3,-0.48
CCn1cnnc1CN(C)CCN1CCN(c2ccccc2)CC1,-14,2.46
Cc1nn(C)c(C)c1CNC[C@@H]1CCO[C@H]1c1ccc(F)cc1,-13,1.23
COC(=O)C1(NCc2coc(-c3c(F)cccc3F)n2)CCC1,-10,1.05
CC(NC(=O)c1cc2c(s1)CCCCCC2)C1CCCO1 (stereo unspecified),-15,1.38
Cc1cccc(O)c1NC(=O)c1cccn2c(Cc3ccccc3)nnc12,0,-0.06
CS(=O)(=O)CCC(=O)N1CCCc2sccc2C1,-17,1.53
Cc1ccncc1C(=O)N1CCNC[C@H]1C(=O)N1CCCC1,-7,0.81
O=S(=O)(c1ccoc1)N1CCC[C@@]2(CCOC2)C1,-15,1.95
C[C@@H]1CN(CC(=O)NCc2cnn3cccnc23)C[C@H](C)O1,-5,1.07
COc1ccc2[nH]nc(-c3cc(-c4ccc[nH]4)nc(N)c3C#N)c2c1,-26,2.29
COc1ccc(C(NC(=O)CN2CCn3ncnc3C2)c2ccc(OC)cc2)cc1,-10,1.81
